In all, about 33,000 sequences were measured (“E-score (-0.5 to 0.5)”: median about -0.056, highest 2% from about 0.38 on). This is one part of the list.

The target of the experiment is Stb4 (UniProt P50104). Kind of experiment: PBM E-score (8-mer binding enrichment) (E-score (-0.5 to 0.5)); higher = stronger / more preferred TF binding; most listed sequences are background and not binding sites. The following applies: protein concentration: 200 nM; construct: GST-DNA-binding domain. The method, boiled down: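 PURExpress in vitro transcription/translation supplied GST-tagged yeast transcription factors, either full-length or DNA-binding domain. Applied at about 100-200 nM to universal all-10-mer Agilent arrays double-stranded by primer extension, the bound protein was detected with fluorescent anti-GST. E-scores, modified Wilcoxon-Mann-Whitney statistics, were given by the Universal PBM Analysis Suite to ungapped eight-base words pooled with their reverse complements after masliner normalisation.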
As to CTGCTACA, the “PBM E-score” value is -0.114.

On to CGCGGAGA, for which the “PBM E-score” value turned out to be 0.153.

On to ATTCCTGA, for which the “PBM E-score” value is -0.149.

As to AAATGACA, the “PBM E-score” value is -0.182.

For TCGACTAA, the “PBM E-score” value was -0.256.

Turning to CCGTGTCA, the “PBM E-score” value was 0.237.

Consider AGGTACTA, for which the “PBM E-score” value was -0.153.

As to CAAACTTC, the “PBM E-score” value stood at 0.108.

In the case of CCCTGGGC, the “PBM E-score” value was -0.249.

For TCGAGACA, the “PBM E-score” value is -0.144.

On to CCGGGGCC, for which the “PBM E-score” value amounted to 0.268.

For the sequence CCCCCCCC, the “PBM E-score” value is -0.318.

In the case of ACCTATCC, the “PBM E-score” value was 0.191.

For the sequence CATGACTA, the “PBM E-score” value was -0.219.

AATTAATG: the “PBM E-score” value was 0.162.

Consider CCTGTTCA, for which the “PBM E-score” value was -0.145.

For the sequence AAATTTTC, the “PBM E-score” value is 0.195.

In the case of CACTTAGC, the “PBM E-score” value was -0.0703.

As for ACTTGTGG, the “PBM E-score” value is -0.153.

Regarding CAAGGAGC, the “PBM E-score” value is -0.249.

With CCCACAAG, the “PBM E-score” value was 0.0281.

With AAGGATCG, the “PBM E-score” value is 0.131.

Regarding CCGTAGTC, the “PBM E-score” value was found to be 0.159.

For the sequence GAGGACGC, the “PBM E-score” value was found to be 0.0485.

Regarding GAATGAGC, the “PBM E-score” value was 0.017.

Take GAGCTGGC: the “PBM E-score” value was -0.145.

Regarding ATTGTGGC, the “PBM E-score” value is -0.101.

Regarding AAACGACC, the “PBM E-score” value was found to be 0.00802.

Regarding AAACCTCA, the “PBM E-score” value is 0.0266.

For the sequence ACACAGGA, the “PBM E-score” value was -0.14.

Take GCATGAGC: the “PBM E-score” value was -0.122.

Take CGTCCAGC: the “PBM E-score” value is -0.186.

Take AAAACAGC: the “PBM E-score” value came out at 0.0238.

For AGTATCCG, the “PBM E-score” value was determined as 0.436.

On to ATATCCGA, for which the “PBM E-score” value was determined as 0.482.

ACGGAGTC: the “PBM E-score” value is -0.0191.

Consider CCCCGGTA, for which the “PBM E-score” value came out at 0.174.

With CACCCCCC, the “PBM E-score” value was -0.0898.

For the sequence TGTCGCAA, the “PBM E-score” value came to 0.0455.

Regarding AACCCTAG, the “PBM E-score” value is -0.213.

In the case of CACGGACC, the “PBM E-score” value turned out to be 0.114.

For GTCCGATA, the “PBM E-score” value was found to be 0.22.

Take TGAGGGAA: the “PBM E-score” value is -0.119.

As for ATTTAAGG, the “PBM E-score” value is -0.0945.

Regarding AATCATGG, the “PBM E-score” value is -0.266.

Turning to AATAGTCA, the “PBM E-score” value is -0.0161.

As for AGCAGGCC, the “PBM E-score” value is -0.114.

As to CTACGCTA, the “PBM E-score” value was -0.029.

Consider AACGTCTC, for which the “PBM E-score” value is -0.176.

Consider GCTCCAAA, for which the “PBM E-score” value was -0.0474.

On to ATCCTATG, for which the “PBM E-score” value was -0.216.

With AACGAGCA, the “PBM E-score” value is -0.189.

Consider ATCTCCGG, for which the “PBM E-score” value was 0.345.

With ATTAATAA, the “PBM E-score” value came out at 0.161.

For the sequence TACACGTA, the “PBM E-score” value was -0.0156.

As for CCCTACAC, the “PBM E-score” value is 0.0388.

As to CGTCATCA, the “PBM E-score” value is -0.183.

On to AATGAGGT, for which the “PBM E-score” value was -0.00912.

For CAACGCAC, the “PBM E-score” value is -0.164.

With ATAATAGC, the “PBM E-score” value came to 0.0769.

On to CTAGTCTC, for which the “PBM E-score” value was -0.0684.

Regarding ATCTCGAA, the “PBM E-score” value is -0.0183.

In the case of ATTTCTGG, the “PBM E-score” value was -0.155.

As for GGAGGATA, the “PBM E-score” value is -0.0736.

With CTGTGAGC, the “PBM E-score” value is -0.22.

For the sequence ATGTAGTC, the “PBM E-score” value was -0.159.

On to CACTACAG, for which the “PBM E-score” value was -0.087.

For GGTAACCA, the “PBM E-score” value is 0.0374.

As for CGGAGTAC, the “PBM E-score” value was found to be 0.239.

Consider GCTTTGAA, for which the “PBM E-score” value was -0.281.

On to TGATCCCA, for which the “PBM E-score” value was -0.188.

As for ACGTGAAC, the “PBM E-score” value was -0.176.

Consider ATTGTGGA, for which the “PBM E-score” value was -0.187.

Consider CGTGGAAC, for which the “PBM E-score” value is -0.0413.

Regarding CCATTCAG, the “PBM E-score” value was -0.05.

CAGATGCC: the “PBM E-score” value is -0.079.

On to GACGGGGA, for which the “PBM E-score” value came out at 0.227.

As for CGCGGGCC, the “PBM E-score” value is 0.185.

In the case of AGGTCCTA, the “PBM E-score” value is -0.206.

In the case of GCTTGGTA, the “PBM E-score” value was -0.238.

For the sequence CATGGTAC, the “PBM E-score” value is -0.127.

Regarding GGATGGGA, the “PBM E-score” value is 0.0414.

As for AAAAGCCA, the “PBM E-score” value stood at 0.0382.

As to CCCGTGAG, the “PBM E-score” value was 0.127.

Take CCCGCAGG: the “PBM E-score” value came out at 0.115.

Regarding TAGTACAA, the “PBM E-score” value was -0.238.

Take CTGATCAC: the “PBM E-score” value is -0.275.

As to AAGAACGA, the “PBM E-score” value is 7e-05.

Take CACTTCTA: the “PBM E-score” value is -0.0172.

For TCGGTACA, the “PBM E-score” value came out at 0.356.

As for CGCACTTA, the “PBM E-score” value was 0.0972.

For ACGTCAGG, the “PBM E-score” value is -0.112.

Consider CATCGGGG, for which the “PBM E-score” value was determined as 0.168.

Turning to AAAGGCTG, the “PBM E-score” value was -0.114.

Turning to GGCGCGAC, the “PBM E-score” value came to 0.209.

AGAAAGTA: the “PBM E-score” value worked out at 0.0802.

Take CCGTGCAC: the “PBM E-score” value is 0.00756.

As to AAATGCCA, the “PBM E-score” value is -0.168.

Take ACGTCAAG: the “PBM E-score” value was -0.211.

On to AAGGCACA, for which the “PBM E-score” value came out at 0.00963.

Take GGTCATAA: the “PBM E-score” value turned out to be 0.053.

For the sequence GTGCTCAA, the “PBM E-score” value was -0.0249.

On to CATCGAGG, for which the “PBM E-score” value is -0.167.

In the case of AGTGCCCC, the “PBM E-score” value was -0.102.

For CCTCCCCC, the “PBM E-score” value was -0.237.

With TAGGGTAA, the “PBM E-score” value stood at 0.0765.

Turning to CGCCATTC, the “PBM E-score” value worked out at 0.0794.

Consider ATCATGAT, for which the “PBM E-score” value was -0.149.

Turning to ACGTGAAA, the “PBM E-score” value is -0.046.

For the sequence ACCCACTA, the “PBM E-score” value turned out to be 0.113.

The values are drawn from the supplement of paper PMC3334620.
